One compound from ChEMBL document CHEMBL4346670, “Discovery of Novel Janus Kinase (JAK) and Histone Deacetylase (HDAC) Dual Inhibitors for the Treatment of Hematological Malignancies” (J Med Chem, 2019) can be followed below.

Each structure is given as a SMILES string.

Data set [1] in a line: Apparent volume of distribution in CD1(ICR) mouse at 1 mg/kg, iv by LC-MS/MS analysis. Format: ADME, organism-based. The following applies: in vivo, read-out: Vz. In a few lines: (§1)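 Male ICR (CD-1) mice dosed IP or IV, vehicle 10% DMSO, 40% PEG400, 50% water. Blood taken from the jugular vein at set time points and held on ice. Plasma separated by centrifugation, stored at -80 °C, and analysed by LC-MS/MS.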

The target of data set [2] is Proto-oncogene tyrosine-protein kinase Src (Homo sapiens) (UniProt P12931). As to the kind of experiment: Inhibition of recombinant human SRC at 200 nM using Ulight-Poly GAT[EAY(1:1:1)] as substrate measured after 10 mins by LANCE method relative to control. In general terms: TR-FRET usually uses a lanthanide donor and a delayed reading to cut background.
UniProt P12931, sequence (P12931 whole entry, looked up): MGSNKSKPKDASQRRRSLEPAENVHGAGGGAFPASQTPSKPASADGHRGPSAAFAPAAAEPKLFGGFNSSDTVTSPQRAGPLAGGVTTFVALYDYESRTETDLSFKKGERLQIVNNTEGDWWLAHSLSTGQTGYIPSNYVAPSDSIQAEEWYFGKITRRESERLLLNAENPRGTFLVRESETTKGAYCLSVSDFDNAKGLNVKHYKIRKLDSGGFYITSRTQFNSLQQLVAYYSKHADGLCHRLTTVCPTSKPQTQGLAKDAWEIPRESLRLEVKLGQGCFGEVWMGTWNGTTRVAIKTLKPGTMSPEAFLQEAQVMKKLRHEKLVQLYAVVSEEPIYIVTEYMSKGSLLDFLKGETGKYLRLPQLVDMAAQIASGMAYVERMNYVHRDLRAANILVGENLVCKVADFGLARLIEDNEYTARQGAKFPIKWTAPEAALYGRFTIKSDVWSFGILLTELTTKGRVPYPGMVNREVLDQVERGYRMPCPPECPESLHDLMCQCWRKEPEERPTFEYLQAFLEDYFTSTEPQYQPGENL
Data set [3] has as its target cAMP-dependent protein kinase catalytic subunit PRKX (Homo sapiens) (UniProt P51817). In words: Inhibition of recombinant human PRKX at 200 nM using Ulight-RRRSLLE as substrate measured after 30 mins by LANCE method relative to control.
UniProt P51817, sequence (P51817 whole entry): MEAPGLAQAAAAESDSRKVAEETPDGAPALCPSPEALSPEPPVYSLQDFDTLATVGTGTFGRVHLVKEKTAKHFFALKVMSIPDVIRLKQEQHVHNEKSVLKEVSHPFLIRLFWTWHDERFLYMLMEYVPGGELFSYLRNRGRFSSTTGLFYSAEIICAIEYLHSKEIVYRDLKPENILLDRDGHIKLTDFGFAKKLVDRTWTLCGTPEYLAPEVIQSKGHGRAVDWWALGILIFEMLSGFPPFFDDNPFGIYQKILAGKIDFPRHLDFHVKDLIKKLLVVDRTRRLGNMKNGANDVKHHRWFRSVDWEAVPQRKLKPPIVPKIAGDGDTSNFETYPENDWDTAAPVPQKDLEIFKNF
For data set [4], the target named is Serine/threonine-protein kinase Chk1 (Homo sapiens) (UniProt O14757). As to the kind of experiment: Inhibition of recombinant human CHK1 at 200 nM using CREBtide as substrate measured after 30 mins by LANCE assay relative to control. The essentials:
(§2)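 Single-concentration screen within an 85-kinase panel run by a contract lab, with each compound tested at 20 nM and 200 nM. Human recombinant enzymes were used. Activity was quantified as phosphorylation of a peptide substrate read by LANCE time-resolved detection, and inhibition was expressed relative to control, using the same format as the JAK assay.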

Data set [5] is described as follows: AUC (0 to t) in CD1(ICR) mouse at 1 mg/kg, ip by LC-MS/MS analysis. Format: ADME, organism-based. The following applies: in vivo. The essentials: as §1
The target in data set [6] is RAC-alpha serine/threonine-protein kinase (Homo sapiens) (UniProt P31749). In words: Inhibition of recombinant human AKT1 at 200 nM using CREBtide as substrate measured after 60 mins by LANCE assay relative to control. The essentials:
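Human recombinant kinases tested at 20 nM and 200 nM compound in an outsourced panel of 85 kinases. Activity measured as phosphorylation of a ULight-labelled substrate by LANCE detection, expressed as inhibition relative to control.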

Data set [7] deals with Rho-associated protein kinase 2 (Homo sapiens) (UniProt O75116). As to the kind of experiment: Inhibition of recombinant human ROCK2 at 200 nM using Ulight-RRRSLLE peptide as substrate measured after 15 mins by LANCE assay relative to control.
UniProt O75116, sequence (O75116 whole entry, looked up): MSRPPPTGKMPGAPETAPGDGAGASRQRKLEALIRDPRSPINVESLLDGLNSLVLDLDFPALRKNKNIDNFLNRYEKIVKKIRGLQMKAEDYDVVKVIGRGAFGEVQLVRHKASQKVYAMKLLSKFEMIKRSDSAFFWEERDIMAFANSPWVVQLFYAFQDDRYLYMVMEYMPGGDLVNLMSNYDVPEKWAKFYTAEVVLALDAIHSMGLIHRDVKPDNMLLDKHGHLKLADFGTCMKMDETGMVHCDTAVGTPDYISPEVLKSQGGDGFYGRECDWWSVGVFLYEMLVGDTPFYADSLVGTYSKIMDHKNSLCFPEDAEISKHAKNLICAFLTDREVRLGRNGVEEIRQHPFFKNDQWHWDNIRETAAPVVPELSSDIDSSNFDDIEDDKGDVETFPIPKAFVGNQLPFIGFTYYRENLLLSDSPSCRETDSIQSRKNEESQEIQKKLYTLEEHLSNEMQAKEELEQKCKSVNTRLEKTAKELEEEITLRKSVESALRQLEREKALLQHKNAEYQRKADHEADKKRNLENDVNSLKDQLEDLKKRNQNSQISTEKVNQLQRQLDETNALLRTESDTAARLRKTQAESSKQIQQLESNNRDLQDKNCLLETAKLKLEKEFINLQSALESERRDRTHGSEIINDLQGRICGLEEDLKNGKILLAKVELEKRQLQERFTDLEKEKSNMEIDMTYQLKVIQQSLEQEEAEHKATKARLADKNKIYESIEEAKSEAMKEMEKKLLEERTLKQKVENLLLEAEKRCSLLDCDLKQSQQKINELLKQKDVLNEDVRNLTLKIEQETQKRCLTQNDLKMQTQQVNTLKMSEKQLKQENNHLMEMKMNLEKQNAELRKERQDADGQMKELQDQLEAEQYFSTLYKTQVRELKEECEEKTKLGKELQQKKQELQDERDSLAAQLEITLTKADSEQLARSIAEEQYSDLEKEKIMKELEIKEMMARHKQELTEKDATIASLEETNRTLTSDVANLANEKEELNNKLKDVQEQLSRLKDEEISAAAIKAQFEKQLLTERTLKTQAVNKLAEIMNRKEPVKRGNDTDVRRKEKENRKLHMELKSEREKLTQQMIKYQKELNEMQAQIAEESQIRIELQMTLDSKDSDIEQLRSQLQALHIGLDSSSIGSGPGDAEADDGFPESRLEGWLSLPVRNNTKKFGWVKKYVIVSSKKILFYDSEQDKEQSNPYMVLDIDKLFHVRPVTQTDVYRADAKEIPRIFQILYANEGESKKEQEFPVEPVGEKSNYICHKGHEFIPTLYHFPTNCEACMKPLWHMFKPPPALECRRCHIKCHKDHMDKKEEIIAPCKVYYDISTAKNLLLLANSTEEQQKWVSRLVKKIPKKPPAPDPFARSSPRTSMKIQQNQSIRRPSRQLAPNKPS
Data set [8] can be described thus: Oral bioavailability in Sprague-Dawley rat at 10 mg/kg by LC-MS/MS analysis. The class given is ADME, organism-based. The following applies: in vivo.
A short description of data set [9]: Tmax in CD1(ICR) mouse at 1 mg/kg, ip by LC-MS/MS analysis. The class given is ADME, organism-based. The following applies: in vivo.
The target of data set [10] is Receptor-type tyrosine-protein kinase FLT3 (Homo sapiens) (UniProt P36888). As to the kind of experiment: Inhibition of recombinant human FLT3 at 200 nM using Ulight-TK peptide as substrate measured after 60 mins by LANCE assay relative to control. In a few lines:
as §2

For data set [11], the target named is Glycogen synthase kinase-3 beta (Homo sapiens) (UniProt P49841). As to the kind of experiment: Inhibition of recombinant human GSK3beta at 20 nM using Ulight-CFFKNIVTPRTPPPSQGK-amide as substrate measured after 90 mins by LANCE method relative to control. In a few lines: (§3)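 Part of an 85-kinase selectivity panel run by a contract lab, with the test compound at 20 nM and at 200 nM. Each human recombinant kinase's phosphorylation of its peptide substrate was measured following the JAK assay method. Activity is given as percent inhibition.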
UniProt P49841, sequence (P49841 whole entry, looked up): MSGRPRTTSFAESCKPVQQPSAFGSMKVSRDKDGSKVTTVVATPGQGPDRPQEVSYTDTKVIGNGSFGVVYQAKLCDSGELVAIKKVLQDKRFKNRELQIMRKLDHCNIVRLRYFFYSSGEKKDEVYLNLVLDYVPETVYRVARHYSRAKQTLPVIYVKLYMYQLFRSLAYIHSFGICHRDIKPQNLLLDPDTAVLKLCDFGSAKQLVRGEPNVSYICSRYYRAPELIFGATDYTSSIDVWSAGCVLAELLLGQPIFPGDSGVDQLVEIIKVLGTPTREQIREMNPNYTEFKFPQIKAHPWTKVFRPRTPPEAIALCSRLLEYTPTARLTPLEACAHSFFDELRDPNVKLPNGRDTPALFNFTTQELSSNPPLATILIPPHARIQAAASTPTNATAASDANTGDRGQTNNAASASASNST

Data set [12] concerns the target Mitogen-activated protein kinase 14 (Homo sapiens) (UniProt Q16539). In words: Inhibition of recombinant human P38alpha at 20 nM using Ulight-CFFKNIVTPRTPPPSQGK-amide as substrate measured after 30 mins by LANCE assay relative to control. In a few lines:
as §3

Data set [13] addresses Fibroblast growth factor receptor 1 (Homo sapiens) (UniProt P11362). As to the kind of experiment: Inhibition of recombinant human FGFR1 at 200 nM using Ulight-CAGAGAIETDKEYYTVKD as substrate measured after 60 mins by LANCE method relative to control. The essentials: as §2
A short description of data set [14]: Drug level in plasma of BALB/c nu mouse xenografted with HEL cells at 100 mg/kg/day, ip administered for 5 days and measured after 0.5 to 4 hrs by LC-MS/MS analysis. Conditions: in vivo. Format: ADME, organism-based. The essentials:
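HEL-xenografted male BALB/c-nu mice dosed IP at 100 mg/kg/day for 5 days. Sacrificed 0.5, 1.0 and 4.0 h after the last dose. Plasma separated and stored at -80 °C. Tumors homogenized in normal saline (5:1 v/w) and sonicated. Samples deproteinized with methanol containing internal standard, centrifuged, diluted in methanol/acetonitrile and recentrifuged.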

Data set [15] addresses LIM domain kinase 1 (Homo sapiens) (UniProt P53667). In words: Inhibition of recombinant human LIMK1 at 200 nM using Ulight-RRRSLLE as substrate measured after 180 mins by LANCE method relative to control. The essentials:
as §3

In data set [16] the target is Interleukin-1 receptor-associated kinase 1 (Homo sapiens) (UniProt P51617). In words: Inhibition of recombinant human IRAK1 at 20 nM using Ulight-FLGFTYVAP as substrate measured after 60 mins by LANCE method relative to control. In a few lines: as §3
UniProt P51617, sequence (P51617 whole entry, looked up): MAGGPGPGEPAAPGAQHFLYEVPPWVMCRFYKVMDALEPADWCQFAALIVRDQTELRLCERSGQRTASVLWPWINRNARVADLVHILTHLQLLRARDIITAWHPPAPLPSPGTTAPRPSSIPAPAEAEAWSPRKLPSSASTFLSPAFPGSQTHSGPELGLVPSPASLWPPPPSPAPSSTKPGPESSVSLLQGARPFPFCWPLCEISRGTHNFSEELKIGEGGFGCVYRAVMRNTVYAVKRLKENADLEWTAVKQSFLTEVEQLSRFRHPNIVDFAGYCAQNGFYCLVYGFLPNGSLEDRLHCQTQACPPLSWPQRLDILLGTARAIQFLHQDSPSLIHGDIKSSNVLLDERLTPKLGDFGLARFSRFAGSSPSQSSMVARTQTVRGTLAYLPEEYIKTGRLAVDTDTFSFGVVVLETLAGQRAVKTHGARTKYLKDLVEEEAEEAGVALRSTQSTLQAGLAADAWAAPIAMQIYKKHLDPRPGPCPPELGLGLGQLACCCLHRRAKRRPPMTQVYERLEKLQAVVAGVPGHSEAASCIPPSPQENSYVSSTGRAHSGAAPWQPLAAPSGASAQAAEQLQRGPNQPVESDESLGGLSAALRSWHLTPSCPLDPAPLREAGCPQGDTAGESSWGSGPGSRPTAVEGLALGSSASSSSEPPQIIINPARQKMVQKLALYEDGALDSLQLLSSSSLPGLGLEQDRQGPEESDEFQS
Data set [17] concerns the target Platelet-derived growth factor receptor alpha (Homo sapiens) (UniProt P16234). As to the kind of experiment: Inhibition of recombinant human PDGFRalpha at 20 nM using Ulight-TK peptide as substrate measured after 60 mins by LANCE assay relative to control. In a few lines:
as §3

Data set [18] addresses Tyrosine-protein kinase Lck (Homo sapiens) (UniProt P06239). In words: Inhibition of recombinant human LCK at 200 nM using Ulight-Poly GAT[EAY(1:1:1)] as substrate measured after 10 mins by LANCE method relative to control. The essentials: as §3
Data set [19] has as its target Tyrosine-protein kinase FRK (Homo sapiens) (UniProt P42685). In words: Inhibition of recombinant human FRK at 20 nM using Ulight-Poly GAT[EAY(1:1:1)] as substrate measured after 15 mins by LANCE method relative to control. The essentials: as §2
The subject of another data set is K562. In words: Induction of apoptosis in human K562 cells assessed as late apoptotic cells at 0.5 uM after 24 hrs by Annexin-V/propidium iodide staining-based flow cytometric analysis (reference value: 5.87%). The class given is functional. A general note: In flow cytometry, cells or beads pass a laser one at a time.
In data set [20] the target is Phosphorylase b kinase gamma catalytic chain, liver/testis isoform (Homo sapiens) (UniProt P15735). As to the kind of experiment: Inhibition of recombinant human PHKG2 at 20 nM using CREBtide as substrate measured after 30 mins by LANCE method relative to control.
In data set [21] the target is Macrophage colony-stimulating factor 1 receptor (Homo sapiens) (UniProt P07333). In words: Inhibition of recombinant human CSFR at 20 nM using Ulight-TK peptide as substrate measured after 15 mins by LANCE method relative to control. In a few lines: as §2
UniProt P07333, sequence (P07333 whole entry, the tested form may be a part): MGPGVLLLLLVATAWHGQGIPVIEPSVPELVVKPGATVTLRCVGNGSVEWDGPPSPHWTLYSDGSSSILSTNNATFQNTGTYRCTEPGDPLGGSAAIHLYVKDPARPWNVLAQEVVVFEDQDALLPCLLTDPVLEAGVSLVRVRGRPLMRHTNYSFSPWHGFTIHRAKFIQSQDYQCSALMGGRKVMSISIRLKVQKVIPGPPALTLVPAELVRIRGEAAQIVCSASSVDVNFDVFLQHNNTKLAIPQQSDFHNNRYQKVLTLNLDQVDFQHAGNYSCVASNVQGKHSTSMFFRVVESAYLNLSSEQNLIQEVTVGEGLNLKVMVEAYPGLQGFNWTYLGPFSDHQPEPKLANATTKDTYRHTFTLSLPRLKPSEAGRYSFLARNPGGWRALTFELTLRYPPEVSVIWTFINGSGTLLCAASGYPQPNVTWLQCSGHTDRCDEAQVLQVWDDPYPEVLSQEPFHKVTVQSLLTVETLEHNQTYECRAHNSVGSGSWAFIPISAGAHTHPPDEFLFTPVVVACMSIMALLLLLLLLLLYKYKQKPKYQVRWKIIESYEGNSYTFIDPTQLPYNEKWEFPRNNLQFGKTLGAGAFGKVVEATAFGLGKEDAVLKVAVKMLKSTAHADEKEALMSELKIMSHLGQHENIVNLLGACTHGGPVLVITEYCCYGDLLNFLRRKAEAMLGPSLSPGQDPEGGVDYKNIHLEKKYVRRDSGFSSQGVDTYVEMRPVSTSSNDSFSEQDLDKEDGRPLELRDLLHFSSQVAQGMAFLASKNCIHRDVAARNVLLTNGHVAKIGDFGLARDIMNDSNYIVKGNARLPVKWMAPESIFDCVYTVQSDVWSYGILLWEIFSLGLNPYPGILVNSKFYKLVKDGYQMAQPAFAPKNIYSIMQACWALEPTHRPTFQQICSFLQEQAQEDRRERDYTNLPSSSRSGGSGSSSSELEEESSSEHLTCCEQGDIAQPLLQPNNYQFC
The target of data set [22] is Discoidin domain-containing receptor 2 (Homo sapiens) (UniProt Q16832). As to the kind of experiment: Inhibition of recombinant human DDR2 at 20 nM using Ulight-Poly GAT[EAY(1:1:1)] as substrate measured after 10 mins by LANCE method relative to control. The essentials:
as §2

In data set [23] the target is Fibroblast growth factor receptor 3 (Homo sapiens) (UniProt P22607). In words: Inhibition of recombinant human FGFR3 at 20 nM using Ulight-CAGAGAIETDKEYYTVKD as substrate measured after 90 mins by LANCE method relative to control. In a few lines: as §2

UniProt P53667, sequence (P53667 whole entry, looked up): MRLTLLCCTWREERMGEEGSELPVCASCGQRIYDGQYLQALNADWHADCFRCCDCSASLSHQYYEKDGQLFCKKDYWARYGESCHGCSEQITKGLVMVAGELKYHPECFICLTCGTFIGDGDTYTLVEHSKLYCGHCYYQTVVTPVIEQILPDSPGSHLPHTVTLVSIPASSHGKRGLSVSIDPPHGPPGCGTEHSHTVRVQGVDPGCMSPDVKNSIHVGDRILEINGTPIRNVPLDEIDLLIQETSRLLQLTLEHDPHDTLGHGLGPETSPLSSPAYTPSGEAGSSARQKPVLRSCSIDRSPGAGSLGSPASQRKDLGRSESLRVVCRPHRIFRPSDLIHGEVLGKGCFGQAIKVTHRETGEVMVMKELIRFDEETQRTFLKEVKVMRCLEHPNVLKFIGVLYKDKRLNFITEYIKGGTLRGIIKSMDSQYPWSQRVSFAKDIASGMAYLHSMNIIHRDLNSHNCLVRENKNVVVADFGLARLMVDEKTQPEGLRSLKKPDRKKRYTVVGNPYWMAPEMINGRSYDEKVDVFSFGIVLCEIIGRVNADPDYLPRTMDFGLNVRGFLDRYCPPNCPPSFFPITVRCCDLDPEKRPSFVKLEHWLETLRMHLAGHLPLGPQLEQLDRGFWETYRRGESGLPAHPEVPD

For orientation: inhibition means the change of the read-out against control, counted positive when it falls. One may read the AUC(0-t) as the area under the concentration-time curve up to a stated or last time point. Read a low AUC(0-t) as less exposure. As usually defined, the bioavailability is dose-corrected exposure relative to a reference, in per cent. A higher bioavailability goes with much systemic uptake. Broadly, the Tmax is the time from dosing to the highest level. For the compound `O=C(CCCCCn1cc(Nc2ncc(Cl)c(Nc3ccc(Cl)cc3)n2)cn1)NO`, in data set [1], the Vd was determined as 18.4 L/kg. The inhibition in data set [2] is 24%; in data set [3] it was 0%; in [4], 2%; in data set [6], 40%; in data set [7], -5%; in [10] it was 95%. The inhibition in [11] came to 8%; in data set [12], 7%; in data set [13], 32%; in data set [15], 0%; in data set [16], 10%; in data set [17], 47%. For the same compound, the inhibition in data set [18] worked out at 1%; in data set [19] it was 8%; in [20], 10%; in data set [21] it was 2%; in data set [22] it was 11%; in data set [23], 36%. The compound further displayed an AUC(0-t) in [5] of 33 ng·h/mL. In [8], this compound gave a bioavailability of less than 1%. In addition, the Tmax in [9] stood at 7.2 min. The compound also came in with a concentration in data set [14] of 100 nM. The Activity with K562 was found to be 33.5%.
